Measurements from PubChem BioAssay AID1345082 (National Center for Advancing Translational Sciences (NCATS), 2018).
Among all 94,000 compounds or so, about 4,000 (4.3%) were called active. This list was built around the results that the source calls inconclusive (neither active nor inactive); the mix of calls is not that of the screen. Calls come from the whole dose curve; as a rule, active = well fitted inhibition curve with a large enough effect; inconclusive = small, poorly fitted or top-dose-only effect; inactive = no such curve, though single readings can be large or run the other way. Potencies beside an inconclusive call are fits to weak or partial responses and may not hold up.

assay: Cytotoxic Profiling in NIH 3T3 Cell Line of Diverse Libraries Using Quantitative High-Throughput Screening; settings: NIH 3T3 viability, CellTiter-Glo ATP luminescence, 48-72 h; activity change, negative = cytotoxicity: at 96.7 µM (top of the series); series mostly up to 96.7 µM; note: nearly all actives have a fitted effect of over 55% in size
In short: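 Cytotoxicity is measured as loss of cellular ATP: NIH 3T3 cells (400/well) are exposed to compound for 48 or 72 hr at 37 °C, then CellTiter-Glo luminescence is imaged after 10 min at room temperature.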
% is set by controls: 0 for no effect and ±100 for the full control effect; potency is the fitted concentration of half-maximal effect; tags give direction and shape of the fitted curve.

Compound | Potency | activity change, negative = cytotoxicity
COCCN1C(=O)c2ccccc2C(C(=O)NCc2ccc(F)cc2)C12CCCC2 (configuration not stated) | inconclusive: 70.8 µM [inhibitor, single point] | –
CCCN1CCCC2(CCN(S(=O)(=O)c3cccc(OC)c3)C2)C1=O (configuration not stated) | – | inactive: -0.666%
COc1ccc(OC)c(CNC(=O)c2noc(-c3ccc(C)cc3)n2)c1 | inconclusive: 56.2 µM [inhibitor, partial curve, poor fit] | –
CC(C)n1cc(-c2cc(C(=O)N(C)Cc3cccnc3)c3cc(F)ccc3n2)cn1 | – | inactive: -18.6%
COc1ccccc1CCC(=O)N[C@@H]1CN(c2ncccn2)C[C@H]1CO | – | inactive: -0.666%
O=C(c1cc(-c2cccnc2)c2nncn2n1)N1CCOCC1 | – | inactive: 2.11%
O=C1NC(=NC2CCCCC2)C2(CCN(Cc3ccc(F)cc3)C2)N1c1cccnc1 (configuration not stated) | active: 39.8 µM | –
COc1cccc(S(=O)(=O)N2CCCCC2c2nc(-c3cnccn3)n[nH]2)c1 (configuration not stated) | inconclusive: 70.8 µM [inhibitor, single point] | –
O=C(Nc1ccccc1)c1cnc2n1CCN(Cc1cccc(O)c1)CC2 | inconclusive: 100 µM [inhibitor, single point] | –
COc1cccc(-c2cc(-c3c(C)noc3C)c3cncn3c2)c1OC | inconclusive: 35.5 µM [inhibitor, partial curve, poor fit] | –
CCOC(=O)C1(Cc2ccc(F)cc2)CCCN(C(=O)c2ccc(N(C)C)cc2)C1 (configuration not stated) | inconclusive: 50.1 µM [inhibitor, partial curve, poor fit] | –
COC1C(=O)N(C2CCN(Cc3ccc(F)c(F)c3)CC2)C12CCOCC2 (configuration not stated) | – | inactive: -11%
CC(C)Oc1cccc2c1c(NC(=O)CN1CCCC1=O)nn2-c1cccc(F)c1 | inconclusive: 44.7 µM [inhibitor, partial curve, poor fit] | –
COCCn1c(=O)c(C(=O)NCc2cccc(C(F)(F)F)c2)nc2cccnc21 | inconclusive: 44.7 µM [inhibitor, partial curve, poor fit] | –
COCCOCc1nc(C2CCCN2S(=O)(=O)Cc2ccccc2)no1 (configuration not stated) | – | inactive: -8.98%
C#CCNC(=O)c1nc(-c2ccccc2)c2ccccn12 | inconclusive: 89.1 µM [inhibitor, partial curve, poor fit] | –

Compound | Potency | activity change, negative = cytotoxicity
CC(C)CCN1CCOc2cc(C(=O)Nc3cccnc3)ccc2C1 | – | inactive: -13.4% [at 138 µM]
CC1=C[C@@H](CN)[C@H](C(C)C)C[C@H]1Cc1nc2ccc(Cl)cc2[nH]1 | active: 44.7 µM | –
O=C1NC(=NC2CCCCC2)C2(CCCN(Cc3cccnc3)C2)N1c1cc(F)cc(F)c1 (configuration not stated) | active: 11.2 µM | –
COc1ccccc1CN1C[C@@H]2C(=O)N(Cc3ccc4c(c3)OCO4)C(=O)[C@@H]2C1 | – | inactive: -16.9%
COCCNC(=O)c1nc2sccn2c1-c1cccc(C#N)c1 | – | inactive: -15.9% [at 138 µM]
COCCN1C(=O)CS(=O)(=O)C12CCN(C(=O)C1(c3ccc(OC)cc3)CC1)CC2 | inconclusive: 79.4 µM [inhibitor, single point] | –
COc1cccc([S+](=O)([O-])N2CCC3(CC2)C(=O)NN=C3c2cccnc2)c1 | inconclusive: 31.6 µM [inhibitor, partial curve, poor fit] | –
COc1ncccc1CN1CCC2(CC1)OC(=O)N(Cc1ccc(O)cc1)C2(C)c1ccccc1 (configuration not stated) | inconclusive: 70.8 µM [inhibitor, single point] | –
CNC(=O)c1cc(C)nc2onc(C3CCCN(C(=O)c4ccncc4)C3)c12 (configuration not stated) | – | inactive: -20.6%
O=C(NC1CCCN(c2cc(-c3ccc(F)cc3)[nH]n2)C1)c1cccc(Cl)c1 (configuration not stated) | active: 17.8 µM | –
O=C(NCC1CCCCC1)c1nc2sccn2c1-c1ccncc1 | inconclusive: 44.7 µM [inhibitor, partial curve, poor fit] | –
COC[C@@H]1CN(Cc2ccc(F)cc2Cl)C[C@H]1C(=O)NC1CC1 | – | inactive: -5.68%
Cc1noc(C)c1-c1cc2cc(CN(C)C)oc2c(NCc2cccc(F)c2)n1 | inconclusive: 31.6 µM [inhibitor, partial curve, poor fit] | –
COC(=O)c1ccc2nc(C[C@@H]3C[C@@H](C(C)C)[C@H](CNC4CCCCC4)C=C3C)[nH]c2c1 | active: 17.8 µM | –
Cc1ccc(OCCC2CCN(C(=O)CCCC(=O)n3nc(C)c4ccccc43)C2)cc1 (configuration not stated) | inconclusive: 50.1 µM [inhibitor, partial curve, poor fit] | –
COc1ccc(-c2ccc(C(=O)Nc3ccccc3F)cc2)nn1 | inconclusive: 10 µM [inhibitor, full curve] | –
